{"source": "PubChem BioAssay AID686979", "about": "(National Center for Advancing Translational Sciences (NCATS), 2013)", "note": "Hit rate of the full screen: of about 420,000 compounds, about 50,000 (12%) were called active. This list was built around the results that the source calls inconclusive (neither active nor inactive); the mix of calls is not that of the screen. The call rests on the fitted dose curve; in most records, active means well fitted inhibition curve with a large enough effect; inconclusive means small, poorly fitted or top-dose-only effect; inactive means flat fitted curve, though single readings scatter. Potencies of inconclusive entries are left out as doubtful fits. On the % scale 0 is the no-effect control and ±100 the full control effect; potency means the concentration at half of the fitted maximal effect; tags describe the fitted curve by direction and shape.", "data": [{"assay": "qHTS for Inhibitors of human tyrosyl-DNA phosphodiesterase 1 (TDP1): qHTS in cells in presence of CPT; further: nearly all actives have a fitted effect of over 55% in size", "settings": "chicken DT40 Tdp1-/-;hTDP1 cells + 20 nM CPT, ATP luminescence, 48 h; activity change, negative = growth inhibition: at 46.2 µM (top of the series)", "how_it_was_run": "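Chicken DT40 Tdp1-/- cells stably complemented with human TDP1 were seeded at 400 cells/well in medium containing 20 nM camptothecin, exposed to pin-transferred compounds, and grown at 37 °C for at least 48 hr. Viability was read as ATP luminescence.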", "values": [{"molecule": "COc1ccc(CCNC(=O)CCc2c(C)c3cc4c(C)c(C)oc4cc3oc2=O)cc1", "Potency": "active: 10.3 µM"}, {"molecule": "Cc1cc(Cl)ccc1OCC(=O)N(Cc1ccco1)c1c(N)n(Cc2ccccc2)c(=O)[nH]c1=O", "Potency": "inconclusive [inhibitor, partial curve]"}, {"molecule": "O=C(c1c(O)c2ccccc2oc1=O)C1CCCCC1", "Potency": "inconclusive [inhibitor, single point]"}, {"molecule": "Fc1cccc(Cl)c1CSc1ccc2nnc(-c3ccccn3)n2n1", "Potency": "inactive"}, {"molecule": "CSc1ccc(C(=O)C2CCCN(C(=O)Cn3cnnn3)C2)cc1", "note": "(stereo not given)", "Potency": "inactive"}, {"molecule": "CCN(CCCNC(=O)c1nn(-c2ccc(OC)c(Cl)c2)c(=O)c2c1c1ccccc1n2C)c1cccc(C)c1", "Potency": "inconclusive [inhibitor, single point]"}, {"molecule": "CCOC(=O)c1c(NC(=S)Nc2ccccc2)sc(C)c1C", "Potency": "inconclusive [inhibitor, single point]"}, {"molecule": "Cc1onc(-c2ccccc2Cl)c1C(=O)N1CCN(Cc2ccc3c(c2)OCO3)CC1", "Potency": "inconclusive [inhibitor, partial curve]"}, {"molecule": "Cc1ccc(-n2nnc3c(=O)n(Cc4cccc(C)c4)cnc32)cc1", "Potency": "inconclusive [inhibitor, partial curve, poor fit]"}, {"molecule": "COc1ccccc1Cc1c(-c2cccc(Br)c2)nc2ccc(Br)cn12", "Potency": "inconclusive [inhibitor, full curve, poor fit]"}, {"molecule": "COc1ccc(S(=O)(=O)N2CCCCCC2)cc1C(=O)N1CCCC(C(F)(F)F)C1", "note": "(stereo not given)", "Potency": "inconclusive [inhibitor, partial curve, poor fit]"}, {"molecule": "COc1ccc(S(=O)(=O)N2CCC3CC2c2cc(N4CCOCC4)ccc23)cc1", "note": "(stereo not given)", "Potency": "inconclusive [inhibitor, partial curve, poor fit]"}, {"molecule": "CCOC(=O)c1c(NC(=O)CSc2nc3ccccc3c(=O)n2-c2ccccc2)sc(C(C)=O)c1C", "Potency": "inactive"}, {"molecule": "Cc1cccc(-n2ccnc2SCC(=O)Nc2nc3ccccc3s2)c1", "Potency": "inconclusive [inhibitor, single point]"}, {"molecule": "CCCCNC(=S)NCc1ccc2[nH]c(C)cc2c1", "Potency": "inconclusive [inhibitor, single point]"}, {"molecule": "Cc1ccc(Cn2c(CNS(=O)(=O)c3ccc(Cl)s3)nc3cccnc32)cc1", "Potency": "inconclusive [inhibitor, single point]"}, {"molecule": "Cc1cc(C)cc(-n2ccnc2SCC(=O)Nc2ccc3c(c2)OCCO3)c1", "Potency": "inactive"}, {"molecule": "COc1ccc(CNC(=O)c2cc(-c3ccc(C)c(C)c3)n[nH]2)cc1", "Potency": "inconclusive [inhibitor, single point]"}, {"molecule": "O=C(O)CSc1nc2ccccc2s1", "Potency": "inactive"}, {"molecule": "O=C(CN(c1ccccc1)S(=O)(=O)c1ccc(F)cc1)N1CCCCCC1", "Potency": "inconclusive [inhibitor, partial curve]"}, {"molecule": "Cc1ccc(NC(=O)c2nnn(-c3ccc4c(c3)OCCO4)c2N)cc1", "activity change, negative = growth inhibition": "inconclusive: -34.2% [inhibitor]"}, {"molecule": "Clc1ccc(Cl)c(OCCN2CCCC2)c1", "Potency": "inactive"}, {"molecule": "COc1ccc(Cl)cc1NC(=O)COC(=O)Cc1cc(OC)c(OC)c(OC)c1", "Potency": "inactive"}, {"molecule": "Cc1nonc1CC(=O)N1CCc2c([nH]c3ccccc23)C1c1ccccc1F", "note": "(stereo not given)", "Potency": "inconclusive [inhibitor, single point]"}, {"molecule": "CCc1ccccc1Nc1cc(C(=O)NC2CCC(C)CC2)c2ccccc2n1", "note": "(stereo not given)", "Potency": "active: 11.6 µM"}, {"molecule": "C=CC[C@H](CC(=O)N(CCO)Cc1ccccc1)C(=O)N[C@H](COC(=O)[C@H](CC=C)CC(=O)OC(C)(C)C)Cc1ccccc1", "Potency": "active: 23.1 µM"}, {"molecule": "CCCC(=O)C1=C(O)C(C(=O)OC)C(C)(C)CC1=Nc1ccc(Br)cc1", "note": "(stereo not given)", "Potency": "inconclusive [inhibitor, single point]"}, {"molecule": "CCn1c(=O)c([N+](=O)[O-])c(NC2CCS(=O)(=O)C2)c2ccccc21", "note": "(stereo not given)", "Potency": "inactive"}, {"molecule": "COc1ccc(OCC(=O)Nc2ccc(S(=O)(=O)N3CCCCC3)cc2)cc1", "Potency": "inactive"}, {"molecule": "O=C(O)CSc1nnc(-c2ccc(Cl)cc2Cl)n1-c1ccc(Cl)cc1", "Potency": "inactive"}, {"molecule": "CC(C)Cc1cc(CNC(=O)C2CCC(=O)N(Cc3cccc(C(F)(F)F)c3)C2)on1", "note": "(stereo not given)", "Potency": "inconclusive [inhibitor, single point]"}, {"molecule": "Cc1ccccc1NC(=O)CSc1nc(COc2ccccc2)nc2ccccc12", "activity change, negative = growth inhibition": "inconclusive: -37.5% [inhibitor]"}, {"molecule": "Cc1nn(-c2ccccc2)c(N2CCCC2)c1/C=N/NC(=O)c1cccc(S(=O)(=O)Nc2ccc(Cl)cc2)c1", "Potency": "inconclusive [inhibitor, single point]"}, {"molecule": "CC1=CC(C)(C)N(S(=O)(=O)c2ccc(C)cc2)c2cc(C)ccc21", "Potency": "active: 5.8 µM"}, {"molecule": "CC(Cc1cccnc1)NC(=O)c1cc(COc2ccc(F)cc2Cl)on1", "note": "(stereo not given)", "Potency": "active: 20.6 µM"}, {"molecule": "NC(=O)CSc1nnc(-c2cccc(S(=O)(=O)N3CCOCC3)c2)n1C1CCCCCC1", "Potency": "active: 5.8 µM"}, {"molecule": "CC(C)(C)C(=O)Nc1cc2nn(-c3ccccc3)nc2cc1Cl", "Potency": "inconclusive [inhibitor, full curve, poor fit]"}, {"molecule": "CC1CC(=S)Nc2ccccc2S1", "note": "(stereo not given)", "Potency": "inconclusive [inhibitor, single point]"}, {"molecule": "Cc1ccc(CN2C(=O)C(Cc3ccccc3)Nc3ncnc(N4CCCCC4)c32)cc1", "note": "(stereo not given)", "Potency": "active: 18.4 µM"}, {"molecule": "Cc1ccc(C2CC(c3cccc(C)c3)n3ncnc3N2)cc1", "note": "(stereo not given)", "Potency": "active: 14.6 µM"}, {"molecule": "Cc1cc(=O)n(-c2ccc(O)cc2)[nH]1", "Potency": "inconclusive [inhibitor, partial curve]"}, {"molecule": "COc1ccc(Cl)cc1NC(=O)CN(C)C(=O)CN1C(=O)NC2(CCCC2)C1=O", "Potency": "inconclusive [inhibitor, single point]"}, {"molecule": "COc1ccc(C(=O)N2c3ccccc3C(=O)OC2c2ccc3c(c2)OCO3)cc1", "note": "(stereo not given)", "Potency": "inactive"}, {"molecule": "O=C(Nc1cc(Cl)cc(Cl)c1)c1cc(S(=O)(=O)N2CCc3ccccc3C2)ccc1F", "Potency": "inconclusive [inhibitor, single point]"}, {"molecule": "Cn1cc(C(=O)NS(=O)(=O)Nc2ccc(Br)cn2)c2ccccc21", "Potency": "inactive"}]}]}
